Biological target: T1, ovalbumin (UniProt P01012 2-386)
T1 construct: Control
T1 sequence (looked up): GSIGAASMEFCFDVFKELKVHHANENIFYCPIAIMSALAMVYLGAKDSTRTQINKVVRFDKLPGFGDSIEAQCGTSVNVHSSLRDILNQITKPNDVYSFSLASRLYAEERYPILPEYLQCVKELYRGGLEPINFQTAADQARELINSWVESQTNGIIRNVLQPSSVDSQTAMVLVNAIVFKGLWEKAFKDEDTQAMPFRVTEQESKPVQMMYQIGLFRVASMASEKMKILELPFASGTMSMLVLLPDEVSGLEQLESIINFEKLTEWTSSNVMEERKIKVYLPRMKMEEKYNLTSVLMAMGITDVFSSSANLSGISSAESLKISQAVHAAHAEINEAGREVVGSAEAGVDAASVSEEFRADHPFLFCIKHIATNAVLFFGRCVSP
Assay: ELISA, increasing concentrations of SUMO1 on coated wells

B1: SUMO1 (other)
chain: not shown
notes: Immobilized on CnBr Sepharose beads or ELISA wells, or free in solution; also called S1
binding result: no binding

Source: patent US20150266922A1 (GEORG AUGUST UNIVERSITAT GOTTINGEN STIFTUNG OFFENTLICHEN …, published 2015)
